Each structure is given as a SMILES string. Screen size: about 48,000 compounds; about 1,200 (2.5%) were called active. Roughly 2% stayed inconclusive and do not appear here.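 How the source made its calls: active means activation of at least 60% and not above a set upper limit (about 1 call in 100 departs from these limits); inconclusive means activation of 40% to 60%, or above that upper limit; inactive means activation under 40%.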 The list shows a part of the results.

The record followed here is PubChem BioAssay AID1346428 (National Center for Advancing Translational Sciences (NCATS), 2018).

In this test the target is Probable G-protein coupled receptor 32 (Homo sapiens) (UniProt O75388). Nature of the test: qHTS for Agonists of Human Resolvin D1 Receptor DRV1. Particulars: CHO-K1 GPR32 beta-arrestin PathHunter luminescence, 90 min; at 76.9 µM; active compounds read high; zero percent set by DMSO-only wells. The method, boiled down: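 Using DMSO wells as EC0, agonist-induced signal was taken as chemiluminescence from beta-Gal reconstituted upon beta-arrestin recruitment to GPR32 in CHO-K1 cells after 90 min compound treatment.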
Chain of UniProt O75388 (O75388 whole entry, looked up): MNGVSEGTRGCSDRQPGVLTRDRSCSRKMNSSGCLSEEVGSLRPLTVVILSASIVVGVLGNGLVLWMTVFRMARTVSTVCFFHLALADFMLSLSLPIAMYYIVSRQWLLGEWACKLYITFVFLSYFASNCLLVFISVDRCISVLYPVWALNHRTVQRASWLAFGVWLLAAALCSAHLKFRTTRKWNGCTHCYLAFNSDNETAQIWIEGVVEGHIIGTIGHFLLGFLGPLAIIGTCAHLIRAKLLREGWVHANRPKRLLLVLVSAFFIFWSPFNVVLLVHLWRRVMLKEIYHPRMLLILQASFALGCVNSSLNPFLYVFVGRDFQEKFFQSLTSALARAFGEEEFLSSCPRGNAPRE
(In general: In qHTS, concentration-response curves come from the screen itself.)
As for `CCOc1ccc(N2CC(c3nc(-c4cc(OC)c(OC)c(OC)c4)no3)CC2=O)cc1` (stereo not drawn), the activation was inactive: -18.6%.
As to `O=C(NC1CCCC1)c1c[nH]c2ccc(S(=O)(=O)Nc3cccc(C(F)(F)F)c3)cc2c1=O`, the activation is active: 82.3%.
As for `COc1cccc(N2CC(NC(=O)c3ccc(S(=O)(=O)N4CCCC4)cc3)CC2=O)c1` (stereo not drawn), the figure is inactive: -6.67%; as for `COc1ccc(-c2nc3n(n2)C(c2ccc(OC)cc2)C(C(=O)Nc2cccnc2)=C(C)N3)cc1` (stereo not drawn), inactive: -19.1%; as for `CCOC(=O)c1[nH]c(C)c(CCC(=O)N2CCN(c3ccccc3)CC2)c1C`, inactive: -17.7%.
Consider `COCCNC(=O)C1CCN(S(=O)(=O)c2ccc3c(c2)CCCN3C(C)=O)CC1`, for which the activation is inactive: 13.9%.
As for `CCN(c1ccccc1)S(=O)(=O)c1nnc(NC(=O)COc2ccc(OC)cc2)s1`, the figure is inactive: -3.21%.
With `CCOC(=O)c1c(C)oc2nc(C)nc(NCC3CCN(Cc4ccc(Cl)cc4)CC3)c12`, the activation is inactive: -8.35%.
In the case of `CC(=O)OCC#CCSc1nnc(-c2cccc(Br)c2)o1` it was inactive: -6.05%.
For `Cc1ccccc1CNC(=O)C(C)n1nc(C)n2c(cc3occc32)c1=O` (stereo not drawn), the activation was inactive: -17.9%.
Take `Cc1ccc(NC(=O)CN2C(=O)CCSc3ccc(S(=O)(=O)N4CCCC4)cc32)cc1`: the activation is inactive: -10.6%.
With `COc1ccc(NC(=O)C2=CC(c3cccs3)=NS(=O)(=O)N2C)cc1`, the activation is inactive: -21.7%.
In the case of `COc1ccc(CC(=O)Nc2nc3c(s2)CC(C(C)(C)C)CC3)cc1` (stereo not drawn) it was inactive: -30.6%; in that of `CCn1c(CNC(=O)c2ccc(OC)cc2)nnc1SCC(=O)Nc1ccc(OC)cc1`, inactive: -2.74%.
Take `CC(C)=CCC[C@@](C)(O)[C@H]1CC=C(C)CC1`: the activation is inactive: -16.3%.
Consider `CCc1ccc(-c2nc(CSCC(=O)NCc3ccccc3OC)c(C)o2)cc1`, for which the activation was inactive: -12.6%.
For the compound `Cc1ccc(-c2nc3c(c(SCC(=O)N4CCCCC4)n2)Cc2cc(C)ccc2O3)cc1`, the activation is inactive: -6.21%.
In the case of `CC(C)NC(=O)Nc1ccc2c(c1)N(C)C(=O)c1ccccc1S2` it was inactive: 7.19%; in that of `COc1ccc(-c2nc3scc(CCNS(=O)(=O)c4ccc(F)cc4F)n3n2)cc1OC`, inactive: -14.5%.
Regarding `Cc1nn(Cc2noc(C(=O)NCc3ccc(F)cc3)n2)c(C)c1Br`, the activation is inactive: -17.8%.
On to `O=C(NCCc1ccccc1)c1ccc2c(c1)N(Cc1ccccc1Cl)C(=O)c1ccccc1S2`, for which the activation was inactive: -9.32%.
`CCOc1ccc(CC(=O)Nc2ccc3nc(N4CCCCC4)cc(C)c3c2)cc1OCC`: the activation was inactive: -3.16%.
As to `CCOC(=O)c1cccc(NC(=O)CSc2ncc3c(n2)-c2ccccc2N(C)S3(=O)=O)c1`, the activation is inactive: -15.4%.
